Assay [1] has as its target neutrophil elastase (human (endogenous in neutrophils)) (UniProt P08246). The experiment in a line: SEC; unactivated azurophilic granules permeabilized with 0.1% NP-40, Superdex 200 GL, 20 mM HEPES pH 7.4, 100 mM NaCl, 0.5 U/ml heparin; fractions probed for NE and MPO; proteins of the complex detected by mass spectrometry. On the technique in general: SEC sorts molecules by how far they enter the pores of the column.

Protein sequences, listed by entry. Tags and fused reporters are not part of them. Residues count along the entry.
UniProt P08246, residues 30-267: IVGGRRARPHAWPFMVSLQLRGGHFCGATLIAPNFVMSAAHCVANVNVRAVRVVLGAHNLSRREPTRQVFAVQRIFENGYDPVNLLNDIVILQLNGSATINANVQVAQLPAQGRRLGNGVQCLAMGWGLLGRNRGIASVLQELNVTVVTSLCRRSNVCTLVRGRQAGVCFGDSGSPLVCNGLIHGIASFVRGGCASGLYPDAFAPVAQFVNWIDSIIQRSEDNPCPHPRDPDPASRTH

For assay [2] the target is unchanged. The experiment in a line: co-IP; azurophilic granules of control human neutrophils, untreated (also with HOCl), solubilized with 0.1% NP-40; rabbit anti-NE antibody or mock antibody (anti-MMP9, anti-BPI), Protein-G resin, 4°C; washes with GPB and GPB + 0.5 U/ml heparin; Coomassie staining or immunoblotting. For orientation: A western blot detects proteins with antibodies after separation by electrophoresis.

Assay [3] has the same target. The experiment in a line: condition: only granules treated with 100 μM H2O2 before solubilization; co-IP; as a1, but intact azurophilic granules treated with 100 μM H2O2 for 2 hr at 37°C before solubilization (also with protease inhibitors or ABAH); anti-NE antibody; immunoblotting against MPO, CG, AZU, LYZ.
Assay [4] shares this target. The experiment in a line: co-IP; cytoplasmic lysate (LSS) of control human neutrophils activated with PMA for 60 min; anti-NE antibody; immunoblotting against CG, AZU, MPO.
The target is the same in assay [5]. Nature of the assay: co-IP; as a1, but intact azurophilic granules treated with 100 μM H2O2 for 2 hr at 37°C before solubilization (also with protease inhibitors or ABAH); anti-NE antibody; immunoblotting against MPO, CG, AZU, LYZ.

Consider 6 molecules from paper PMC4471680.

These are yes or no findings as the source states them, for the method shown. For part of these data: In cells and extracts the contact can be indirect. Some entries that bind do so weakly or less than the wild type.

B1: eosinophil cationic protein (protein, UniProt P12724 28-160)
chain: RPPQFTRAQWFAIQHISLNPPRCTIAMRAINNYRWRCKNQNTFLRTTFANVVNVCGNQSIRCPHNRTLNNCHRSRFRVPLLHCDLINPGAQNISNCTYADRPGRRFYVVACDNRDPRDSPRYPVVPVHLDTTI
In the case of B1, the binding entry in assay [1] and in assay [2] was “binds” in each case.

B2: lysozyme (enzyme, UniProt P61626 19-148)
chain: KVFERCELARTLKRLGMDGYRGISLANWMCLAKWESGYNTRATNYNAGDRSTDYGIFQINSRYWCNDGKTPGAVNACHLSCSALLQDNIADAVACAKRVVRDPQGIRAWVAWRNRCQNRDVRQYVQGCGV
Regarding B2, the values for the binding result in assay [1], in assay [2] and in assay [3] were “binds”, “binds” and “no binding”, respectively.

B3: cathepsin G (enzyme, UniProt P08311 21-244)
chain: IIGGRESRPHSRPYMAYLQIQSPAGQSRCGGFLVREDFVLTAAHCWGSNINVTLGAHNIQRRENTQQHITARRAIRHPQYNQRTIQNDIMLLQLSRRVRRNRNVNPVALPRAQEGLRPGTLCTVAGWGRVSMRRGTDTLREVQLRVQRDRQCLRIFGSYDPRRQICVGDRRERKAAFKGDSGGPLLCNNVAHGIVSYGKSSGVPPEVFTRVSSFLPWIRTTMRS
As to B3, the binding result in assay [4], in assay [5], in assay [1] and in assay [2] was “binds” each time.

B4: azurocidin (protein, UniProt P20160 27-251)
chain: IVGGRKARPRQFPFLASIQNQGRHFCGGALIHARFVMTAASCFQSQNPGVSTVVLGAYDLRRRERQSRQTFSISSMSENGYDPQQNLNDLMLLQLDREANLTSSVTILPLPLQNATVEAGTRCQVAGWGSQRSGGRLSRFPRFVNVTVTPEDQCRPNNVCTGVLTRRGGICNGDGGTPLVCEGLAHGVASFSLGPCGRGPDFFTRVALFRDWIDGVLNNPGPGPA
B4: the binding result in assay [4], in assay [5], in assay [1] and in assay [2] was “binds” throughout.

B5: proteinase 3 (enzyme, UniProt P24158 28-248)
chain: IVGGHEAQPHSRPYMASLQMRGNPGSHFCGGTLIHPSFVLTAAHCLRDIPQRLVNVVLGAHNVRTQEPTQQHFSVAQVFLNNYDAENKLNDVLLIQLSSPANLSASVATVQLPQQDQPVPHGTQCLAMGWGRVGAHDPPAQVLQELNVTVVTFFCRPHNICTFVPRRKAGICFGDSGGPLICDGIIQGIDSFVIWGCATRLFPDFFTRVALYVDWIRSTLR
Consider B5, for which, in assay [1], the binding entry was “binds”.

B6: bactericidal/permeability-increasing protein (protein, UniProt P17213 32-487)
chain: VNPGVVVRISQKGLDYASQQGTAALQKELKRIKIPDYSDSFKIKHLGKGHYSFYSMDIREFQLPSSQISMVPNVGLKFSISNANIKISGKWKAQKRFLKMSGNFDLSIEGMSISADLKLGSNPTSGKPTITCSSCSSHINSVHVHISKSKVGWLIQLFHKKIESALRNKMNSQVCEKVTNSVSSELQPYFQTLPVMTKIDSVAGINYGLVAPPATTAETLDVQMKGEFYSENHHNPPPFAPPVMEFPAAHDRMVYLGLSDYFFNTAGLVYQEAGVLKMTLRDDMIPKESKFRLTTKFFGTFLPEVAKKFPNMKIQIHVSASTPPHLSVQPTGLTFYPAVDVQAFAVLPNSSLASLFLIGMHTTGSMEVSAESNRLVGELKLDRLLLELKHSNIGPFPVELLQDIMNYIVPILVLPRVNEKLQKGFPLPTPARVQLYNVVLQPHQNFLLFGADVVYK
As for B6, the binding result in assay [2] is given as “no binding”.
